{"source": "the supplement of paper PMC3334620", "note": "In all, about 33,000 sequences were measured (“E-score (-0.5 to 0.5)”: median about -0.041, highest 2% from about 0.37 on). The list shows a part of the results."}
{"biological_target": "T1, Ecm22 (UniProt Q05958)", "T1 sequence": "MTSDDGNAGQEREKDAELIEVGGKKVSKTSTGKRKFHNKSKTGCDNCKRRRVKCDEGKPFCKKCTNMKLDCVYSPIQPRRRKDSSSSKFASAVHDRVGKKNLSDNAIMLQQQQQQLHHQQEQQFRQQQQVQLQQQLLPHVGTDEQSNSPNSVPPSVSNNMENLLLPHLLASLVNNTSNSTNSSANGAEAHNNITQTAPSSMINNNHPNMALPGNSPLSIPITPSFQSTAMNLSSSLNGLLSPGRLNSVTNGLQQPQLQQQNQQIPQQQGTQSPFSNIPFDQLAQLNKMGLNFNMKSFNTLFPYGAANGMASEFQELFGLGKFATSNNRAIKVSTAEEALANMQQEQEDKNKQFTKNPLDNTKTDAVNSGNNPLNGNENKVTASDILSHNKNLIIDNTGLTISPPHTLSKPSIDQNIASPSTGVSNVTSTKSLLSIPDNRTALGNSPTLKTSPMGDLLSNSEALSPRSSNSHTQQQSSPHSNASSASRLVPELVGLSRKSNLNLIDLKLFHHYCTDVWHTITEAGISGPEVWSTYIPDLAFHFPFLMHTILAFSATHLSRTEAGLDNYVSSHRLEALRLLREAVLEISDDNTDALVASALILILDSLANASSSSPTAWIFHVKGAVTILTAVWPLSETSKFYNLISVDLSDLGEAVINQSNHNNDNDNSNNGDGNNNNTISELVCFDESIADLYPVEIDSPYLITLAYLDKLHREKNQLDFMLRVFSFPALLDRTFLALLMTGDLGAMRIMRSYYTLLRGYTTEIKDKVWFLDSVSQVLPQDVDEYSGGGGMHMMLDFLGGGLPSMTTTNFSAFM", "assay": "PBM E-score (8-mer binding enrichment) (E-score (-0.5 to 0.5)); higher = stronger / more preferred TF binding; most listed sequences are background and not binding sites", "details": "protein concentration: 200 nM; construct: GST-full length", "description": "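Universal 'all 10-mer' protein binding microarrays (Agilent AMADID 015681) probed with GST-tagged S. cerevisiae TFs (full-length or DBD) made by in vitro transcription/translation (PURExpress), about 100-200 nM. Bound TF was detected with fluorescent anti-GST. Each ungapped 8-mer (which stands for itself and its reverse complement) is scored by the PBM enrichment score (E-score), a modified Wilcoxon-Mann-Whitney statistic from -0.5 to +0.5, computed with the Universal PBM Analysis Suite. Scale: above 0.35 generally sequence-specific binding.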"}
{"sequence": "CGGCCCAC", "PBM E-score": -0.235}
{"sequence": "GGCATCGA", "PBM E-score": -0.0797}
{"sequence": "AATACACA", "PBM E-score": 0.114}
{"sequence": "CCCTCCGC", "PBM E-score": -0.176}
{"sequence": "AGTAGTTC", "PBM E-score": -0.0387}
{"sequence": "AGGGTTGC", "PBM E-score": -0.128}
{"sequence": "CAAGCGCC", "PBM E-score": -0.148}
{"sequence": "CACAGGAC", "PBM E-score": -0.157}
{"sequence": "AAATCGAT", "PBM E-score": -0.0591}
{"sequence": "ACTTTAGG", "PBM E-score": -0.0481}
{"sequence": "ACCTAGAG", "PBM E-score": -0.00033}
{"sequence": "GTCGGGCA", "PBM E-score": -0.207}
{"sequence": "GGCGCTAA", "PBM E-score": -0.222}
{"sequence": "CCTCTCAG", "PBM E-score": -0.4}
{"sequence": "GACTCCGC", "PBM E-score": -0.185}
{"sequence": "CTTTGCAA", "PBM E-score": -0.0465}
{"sequence": "ACCCGTTG", "PBM E-score": -0.166}
{"sequence": "ACCGGAAC", "PBM E-score": 0.327}
{"sequence": "AGACGTTG", "PBM E-score": 0.0351}
{"sequence": "GAAAAGTC", "PBM E-score": 0.0197}
{"sequence": "AAGAGAGG", "PBM E-score": -0.104}
{"sequence": "AAATGTTG", "PBM E-score": -0.0471}
{"sequence": "TACATGGA", "PBM E-score": -0.119}
{"sequence": "AGAATGCT", "PBM E-score": -0.192}
{"sequence": "CCAGCCAC", "PBM E-score": -0.0994}
{"sequence": "CCCCGTAA", "PBM E-score": 0.211}
{"sequence": "GAGCCTAC", "PBM E-score": -0.268}
{"sequence": "ATGAAACG", "PBM E-score": 0.254}
{"sequence": "ATTATTGA", "PBM E-score": -0.0819}
{"sequence": "TGCGAAAA", "PBM E-score": 0.116}
{"sequence": "CCTCACGA", "PBM E-score": -0.173}
{"sequence": "AGCAAAGC", "PBM E-score": -0.151}
{"sequence": "TAACATTA", "PBM E-score": 0.00654}
{"sequence": "GTCCGGGA", "PBM E-score": -0.00898}
{"sequence": "ATAATTCC", "PBM E-score": -0.0852}
{"sequence": "ACCTACCC", "PBM E-score": -0.01}
{"sequence": "CCAATATC", "PBM E-score": -0.158}
{"sequence": "ATCTCACA", "PBM E-score": -0.136}
{"sequence": "CGTGCGAC", "PBM E-score": 0.246}
{"sequence": "TAGGACCA", "PBM E-score": -0.185}
{"sequence": "CATCCAAA", "PBM E-score": -0.0125}
{"sequence": "CACTTCGG", "PBM E-score": 0.0311}
{"sequence": "GGTTCTCA", "PBM E-score": -0.021}
{"sequence": "ATTATATG", "PBM E-score": -0.00425}
{"sequence": "AGTGGCAG", "PBM E-score": -0.355}
{"sequence": "CCCCGTAG", "PBM E-score": 0.0215}
{"sequence": "CTCAATGA", "PBM E-score": -0.256}
{"sequence": "ACCCGGTC", "PBM E-score": -0.0818}
{"sequence": "ACTTATTC", "PBM E-score": -0.0444}
{"sequence": "AAGCTTCG", "PBM E-score": 0.144}
{"sequence": "TCGTGCAA", "PBM E-score": 0.124}
{"sequence": "CGCATGAC", "PBM E-score": -0.036}
{"sequence": "AAGTTGAT", "PBM E-score": 0.0519}
{"sequence": "GAGGGTGC", "PBM E-score": -0.079}
{"sequence": "CCGGCTTC", "PBM E-score": -0.0485}
{"sequence": "ACTGATGC", "PBM E-score": 0.00393}
{"sequence": "AGTGTCTG", "PBM E-score": -0.0801}
{"sequence": "CCTCTCTC", "PBM E-score": -0.103}
{"sequence": "CATAATCA", "PBM E-score": 0.00695}
{"sequence": "AGACACCC", "PBM E-score": -0.153}
{"sequence": "AATCAAGC", "PBM E-score": -0.101}
{"sequence": "CAACTTAC", "PBM E-score": -0.12}
{"sequence": "CTGGCCCA", "PBM E-score": -0.307}
{"sequence": "AGGTGTCG", "PBM E-score": 0.0918}
{"sequence": "CATCAGGA", "PBM E-score": 0.139}
{"sequence": "AGCCGCTA", "PBM E-score": -0.0378}
{"sequence": "ATATGATA", "PBM E-score": 0.154}
{"sequence": "GGGAGGTA", "PBM E-score": 0.149}
{"sequence": "TCAGAGCA", "PBM E-score": -0.121}
{"sequence": "AAATTCCA", "PBM E-score": -0.108}
{"sequence": "GCACGGCA", "PBM E-score": -0.0485}
{"sequence": "ACAACAAC", "PBM E-score": 0.155}
{"sequence": "ACTCAAAT", "PBM E-score": -0.0443}
{"sequence": "GACTTAAC", "PBM E-score": -0.166}
{"sequence": "ACGCTGTG", "PBM E-score": -0.00502}
{"sequence": "AATTAATA", "PBM E-score": 0.124}
{"sequence": "ATCACGTG", "PBM E-score": 0.0167}
{"sequence": "ATAATATA", "PBM E-score": 0.178}
{"sequence": "GAGTGCGC", "PBM E-score": -0.0471}
{"sequence": "CGCTCCAG", "PBM E-score": 0.12}
{"sequence": "ATTCCAAC", "PBM E-score": -0.0284}
{"sequence": "GCCCGGCC", "PBM E-score": -0.229}
{"sequence": "GGCGGATA", "PBM E-score": -0.038}
{"sequence": "AAACATTC", "PBM E-score": 0.0717}
{"sequence": "AGCCGGAA", "PBM E-score": -0.0725}
{"sequence": "CGTGCGTA", "PBM E-score": 0.233}
